This is an account of results in paper PMC4336329 (PLoS ONE, 2015).

SMILES strings stand for the structures. Screen size: about 310,000 compounds; about 14,000 (4.5%) showed an effect of 50% or more. Effects have a minus sign here. The list shows a part of the results.
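Also: peak tail current of the secondary pulse compared with the same well before compound.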

The target in this assay is human ether-à-go-go-related gene (hERG) potassium channel (human, UniProt Q12809). Briefly: primary screen, population patch clamp on CHO cells stably expressing hERG.
Sequence of human ether-à-go-go-related gene (hERG) potassium channel (Q12809 whole entry, looked up): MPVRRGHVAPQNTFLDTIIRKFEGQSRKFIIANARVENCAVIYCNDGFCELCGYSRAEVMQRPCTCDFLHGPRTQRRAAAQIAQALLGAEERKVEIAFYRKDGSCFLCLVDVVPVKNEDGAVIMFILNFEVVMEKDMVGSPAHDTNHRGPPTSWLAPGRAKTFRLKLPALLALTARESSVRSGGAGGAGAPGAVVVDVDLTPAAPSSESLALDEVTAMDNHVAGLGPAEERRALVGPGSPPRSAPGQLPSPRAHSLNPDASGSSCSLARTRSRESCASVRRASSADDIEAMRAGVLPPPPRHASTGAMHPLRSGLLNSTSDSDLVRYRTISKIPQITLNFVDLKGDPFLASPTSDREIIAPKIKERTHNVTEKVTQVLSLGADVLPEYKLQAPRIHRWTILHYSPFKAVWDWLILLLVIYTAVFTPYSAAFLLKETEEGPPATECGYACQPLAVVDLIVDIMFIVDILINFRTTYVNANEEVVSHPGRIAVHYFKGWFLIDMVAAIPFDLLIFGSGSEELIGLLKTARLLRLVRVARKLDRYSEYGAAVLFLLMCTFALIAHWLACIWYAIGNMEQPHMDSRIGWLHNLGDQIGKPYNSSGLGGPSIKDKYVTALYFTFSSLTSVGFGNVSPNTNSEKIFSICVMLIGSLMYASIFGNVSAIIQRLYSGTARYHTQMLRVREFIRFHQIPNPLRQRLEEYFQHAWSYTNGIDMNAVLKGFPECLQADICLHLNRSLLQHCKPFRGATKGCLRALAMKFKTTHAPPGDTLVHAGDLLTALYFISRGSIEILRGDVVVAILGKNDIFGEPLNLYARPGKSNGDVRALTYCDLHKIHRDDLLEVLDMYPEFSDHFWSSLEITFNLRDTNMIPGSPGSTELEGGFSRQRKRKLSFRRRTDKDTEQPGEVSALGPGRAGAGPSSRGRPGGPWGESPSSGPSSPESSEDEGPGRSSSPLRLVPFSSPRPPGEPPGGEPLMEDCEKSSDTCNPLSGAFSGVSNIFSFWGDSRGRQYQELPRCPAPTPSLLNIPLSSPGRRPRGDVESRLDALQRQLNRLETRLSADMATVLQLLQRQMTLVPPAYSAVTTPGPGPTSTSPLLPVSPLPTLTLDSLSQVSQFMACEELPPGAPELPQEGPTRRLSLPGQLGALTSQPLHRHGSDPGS
Consider `CCn1cc(C(=O)O)c(=O)c2cc(F)c(N3CCN(C(=S)NC(=O)c4ccc(OC)cc4)CC3)cc21`, for which the “hERG current change (%, negative = inhibition) at 10uM” value was 8.45%.

Take `CCCC(C)C(=O)OCC(=O)Nc1c(Br)cc(C)cc1Br` (stereo not drawn): the “hERG current change (%, negative = inhibition) at 10uM” value is listed as 14.4%.

For the molecule `CCN(CC)C(=O)c1[nH]cnc1C(=O)NCCCCCNC(=O)OC(C)(C)C`, the “hERG current change (%, negative = inhibition) at 10uM” value is on record as 13.6%.

On to `CCCNC(=O)COc1ncnc2sc(C)c(C)c12`, for which the “hERG current change (%, negative = inhibition) at 10uM” value is listed as -4.5%.

In the case of `CCNC(=O)NC(=O)C(C)Oc1ccc(Br)cc1Br` (stereo not drawn), the “hERG current change (%, negative = inhibition) at 10uM” value is listed as -3.59%.

On to `CCC(=O)N1CCc2cc(S(=O)(=O)NC(C(=O)N3CCN(c4ccc(F)cc4)CC3)C(C)C)ccc21` (stereo not drawn), for which the “hERG current change (%, negative = inhibition) at 10uM” value is listed as -10.6%.

Turning to `CN(c1cccc(NC(=O)c2ccccc2N(C)S(C)(=O)=O)c1)S(C)(=O)=O`, the “hERG current change (%, negative = inhibition) at 10uM” value turned out to be 10.7%.

For the molecule `Cc1ccc2nc(SC(C)C(=O)N3CCOCC3)[nH]c2c1` (stereo not drawn), the “hERG current change (%, negative = inhibition) at 10uM” value is listed as 4.94%.

Take `CCN(C(=O)c1cc2c(=O)n3cccc(C)c3nc2s1)C1CCCCC1`: the “hERG current change (%, negative = inhibition) at 10uM” value came out at 11.8%.

Consider `O=S(=O)(CC(O)CS(=O)(=O)c1ccc(Cl)cc1)c1ccccc1` (stereo not drawn), for which the “hERG current change (%, negative = inhibition) at 10uM” value was determined as 2.2%.

Regarding `CC(C)CNC(C(=O)Nc1ccc([N+](=O)[O-])cc1Br)c1ccccc1.O=C(O)C(=O)O` (stereo not drawn), the “hERG current change (%, negative = inhibition) at 10uM” value is -9.16%.

As to `Cc1noc(C)c1C(=O)N1CCC2(CC1)OCCO2`, the “hERG current change (%, negative = inhibition) at 10uM” value is given as 26.3%.

On to `COCCN1C(=O)c2ccccc2C(C(=O)NCC2CCCO2)C1c1c[nH]c2ccccc12` (stereo not drawn), for which the “hERG current change (%, negative = inhibition) at 10uM” value was -1.45%.

Consider `Cc1noc(C)c1C(=O)NC(C)c1ccc2c(c1)OCO2` (stereo not drawn), for which the “hERG current change (%, negative = inhibition) at 10uM” value is given as -6.47%.

Turning to `CSC1=C(C#N)C(c2cccc(Br)c2)CC(=O)N1` (stereo not drawn), the “hERG current change (%, negative = inhibition) at 10uM” value is recorded as -5.27%.

Consider `CCc1ccc(S(=O)(=O)Nc2ccc(O)c3c(=O)cc(-c4ccccc4Cl)oc23)cc1`, for which the “hERG current change (%, negative = inhibition) at 10uM” value worked out at 0.145%.

Take `O=C(COC(=O)/C=C/c1ccc(Cl)cc1Cl)NCc1ccco1`: the “hERG current change (%, negative = inhibition) at 10uM” value was 15.5%.

Regarding `c1ccc(CSc2nnc3ccc(-c4ccncc4)nn23)nc1`, the “hERG current change (%, negative = inhibition) at 10uM” value turned out to be 7.44%.

For the molecule `COc1ccc(C(C)=O)cc1COc1ccc(Cl)c(C)c1`, the “hERG current change (%, negative = inhibition) at 10uM” value is recorded as 11.2%.

`O=C(O)c1cc(S(=O)(=O)Nc2ccccc2Cc2ccccc2)ccc1Cl`: the “hERG current change (%, negative = inhibition) at 10uM” value is 30.4%.

Consider `CCc1nnc(NS(=O)(=O)c2ccc(NC(=S)NC(=O)c3ccncc3)cc2)s1`, for which the “hERG current change (%, negative = inhibition) at 10uM” value was -12.7%.

Turning to `CC(OC(=O)CSc1ccc([N+](=O)[O-])cc1)C(=O)NCc1ccccc1` (stereo not drawn), the “hERG current change (%, negative = inhibition) at 10uM” value is given as -1.86%.

Regarding `CCOC(=O)CSc1nc2c(sc(=S)n2-c2ccc(OCC)cc2)c(=O)[nH]1`, the “hERG current change (%, negative = inhibition) at 10uM” value is on record as 15.5%.

As to `COCCNC(=S)N/N=C/c1ccc(OCc2ccc(C(=O)OC)cc2)c(OC)c1`, the “hERG current change (%, negative = inhibition) at 10uM” value was 21.5%.

For `O=C(CNC(=O)C12CC3CC(CC(C3)C1)C2)N/N=C\c1ccco1`, the “hERG current change (%, negative = inhibition) at 10uM” value came out at 5.05%.

Consider `COc1cccc(-c2cc(C(=O)NCCCN3CCOCC3)no2)c1`, for which the “hERG current change (%, negative = inhibition) at 10uM” value was -14%.

As to `CC(=O)NC(C)C12CC3CC(CC(CC(=O)O)(C3)C1)C2` (stereo not drawn), the “hERG current change (%, negative = inhibition) at 10uM” value is 13.2%.

Take `CCC(=O)Nc1nc2cc(OC)ccc2s1`: the “hERG current change (%, negative = inhibition) at 10uM” value is on record as -1.05%.

For `CCOC(=O)C(NC(=O)c1ccccc1)(N1CCOCC1)C(F)(F)F` (stereo not drawn), the “hERG current change (%, negative = inhibition) at 10uM” value is 4.58%.

As to `O=C(CCCN1C(=O)/C(=C/c2cccs2)SC1=S)Nc1ccccn1`, the “hERG current change (%, negative = inhibition) at 10uM” value was found to be 23.9%.

With `Fc1ccc(C2CCCCN2Cc2nc(CC3CC3)no2)cc1` (stereo not drawn), the “hERG current change (%, negative = inhibition) at 10uM” value was -11.7%.

With `O=C(CSc1nc(=O)[nH]c2c1CCCC2)Nc1ccc(F)cc1F`, the “hERG current change (%, negative = inhibition) at 10uM” value is given as -4.34%.

Turning to `CCCCNC(=S)NNC(=O)c1cc(C)on1`, the “hERG current change (%, negative = inhibition) at 10uM” value is reported as 12.4%.

For `Cc1nc(SCc2ccccc2)c(C(F)(F)F)c(=O)[nH]1`, the “hERG current change (%, negative = inhibition) at 10uM” value is listed as 4.6%.

For the molecule `O=C(NCc1ccccc1)c1cccn(Cc2cccc(Cl)c2)c1=O`, the “hERG current change (%, negative = inhibition) at 10uM” value is given as -17.6%.

Take `COC(=O)c1cc2c(s1)-c1cc(F)ccc1OC2`: the “hERG current change (%, negative = inhibition) at 10uM” value came to 15.3%.

Consider `CCc1ccc(NC(=O)CS(=O)CC(=O)N2CCN(c3ccccc3F)CC2)cc1` (stereo not drawn), for which the “hERG current change (%, negative = inhibition) at 10uM” value was -2.72%.

With `COc1cc(/C=N/NC(=O)COc2ccccc2C)ccc1OC(=O)c1cccs1`, the “hERG current change (%, negative = inhibition) at 10uM” value is -0.671%.

Regarding `CC(C)N1CCN(Cc2ccc(Oc3ncccn3)cc2)CC1CCO` (stereo not drawn), the “hERG current change (%, negative = inhibition) at 10uM” value came to 10.9%.

With `COc1ccc(-n2nnc3c(SCC(=O)NCc4ccco4)ncnc32)cc1`, the “hERG current change (%, negative = inhibition) at 10uM” value is given as -10.6%.

Turning to `Cc1cc(C)cc(OCC(=O)Nc2ccc(-n3cnnn3)cc2)c1`, the “hERG current change (%, negative = inhibition) at 10uM” value came out at 1.14%.

Consider `CCSc1nnc(NC(=O)COc2ccccc2[N+](=O)[O-])s1`, for which the “hERG current change (%, negative = inhibition) at 10uM” value is -0.55%.

With `CC(C)CC(OC(=O)c1cccs1)C(=O)NCC1CCCO1` (stereo not drawn), the “hERG current change (%, negative = inhibition) at 10uM” value was determined as 11.6%.

Consider `CCCCNC(=S)NNC(=O)c1ccco1`, for which the “hERG current change (%, negative = inhibition) at 10uM” value turned out to be 1.53%.

Consider `C[C@]12CCC3[C@@H](CCC4=CC(=O)CC[C@@]43CO)C1CCC2=O` (stereo partly drawn), for which the “hERG current change (%, negative = inhibition) at 10uM” value is -4.45%.
